Results on 56 sequences are retold here after the supplement of paper PMC11417369.

± gives the standard deviation of the averaged measurements. The list shows a part of the results.

The test system of the experiment is PfAP2-I AP2 domain 3 (GST-tagged). The experiment is described as follows: gcPBM binding intensity (ln(normalized median fluorescence intensity)); higher = stronger DNA binding. In outline:
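Binding of GST-tagged P. falciparum DNA-binding domains, expressed in E. coli and used at about 25 μg on average, was carried out for 1 h in 1× PBS containing 1% milk, 0.2 mg/ml BSA, 0.5% salmon testes DNA and 0.03% Triton X-100. The target was an Agilent 4 × 180k array of primer-extended double-stranded 36-bp intergenic genomic probes plus negative controls, read with Alexa488 anti-GST antibody at 488 nm. Binding intensity is the highest Masliner-normalised natural-log median intensity across replicate spots of either probe orientation.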
On to “ATAGTATATCAAAATTTGTAAATCATTCTCAATAAA [CACACA_negctrl_site430]”, for which the “gcPBM binding intensity (ln)” value was 7.39 ± 0.47.
The figure for “CATACATACAAACACACACACATATAAATACATACA [CACACA_site4625]” is 7.89 ± 0.3.
The figure for “AAAAAAAAAAAAAAAACACACATATCTGTATTTATA [CACACA_site5760]” is 8.68 ± 0.47.
As for ACATTGTTGGTGTTAGTGCATTGGTAAATATTATAT, the figure is 10.2 ± 0.11.
As to “TATAAAAAAATAATAAAATAATAAAATATATAAATA [TGCATGCA_negctrl_site394]”, the “gcPBM binding intensity (ln)” value was 7.37 ± 0.42.
“ATTCTATTATCCTTTGCACACAAAATAAATGAAAAA [CACACA_site3030]”: the “gcPBM binding intensity (ln)” value is 8.59 ± 0.27.
As for “TTTTAAAAGGTAAAATGTACATATATAATATATACA [XGTACX_site1222]”, the figure is 7.49 ± 0.52; as for “TATATATTATATATTTGTACATATATATAAAAACTT [XGTACX_site449]”, 7.68 ± 0.2; as for “CCTTCCTTGAATTTTACATGCAAAAAATTATAAAAC [TGCATGCA_site663]”, 9.42 ± 0.62.
As for “ATTTTTATTTTTTTTGTGCACATTTTCATTTTCTAT [GTGCAC_site9580]”, the figure is 10.4 ± 0.47; as for “TTTTTTCAATATTATATCCAAAAATATTTGTAAATA [TGCATGCA_negctrl_site596]”, 7.39 ± 0.43; as for “TTATTAAAATATACATTTGAAAGTAATCTTATTTAA [XGTACX_negctrl_site431]”, 7.15 ± 0.45.
The figure for “ATATTGAAAATTTGAAGTACATCTAAATATATTATT [XGTACX_site7817]” is 7.71 ± 0.23.
For the sequence “TTTATAATAAAAAATACATGCAGTTATATATAATAA [TGCATGCA_site654]”, the “gcPBM binding intensity (ln)” value was 8 ± 0.61.
As for “ATAATGTGTTTGGTATTCTTGATAGATAGTTTTGTG [CACACA_negctrl_site68]”, the figure is 7.68 ± 0.69; as for “ATCCGTGTCTGAAATACACACATGACAATGTGAATG [CACACA_site6556]”, 7.82 ± 0.64; as for “TATATATAAATAAACACACACAAATATAATAAAAAA [CACACA_site3526]”, 7.92 ± 0.8.
The figure for “TATTTTACATAAAAGAAAAAAAAAAAAAAAAAAAAA [CACACA_negctrl_site1460]” is 8.12 ± 0.94; for “TTTTGTTTAGTGTATTGTACAATATATCTTTATTTT [XGTACX_site5163]” it is 7.95 ± 0.69; for “AGTCCTTACACATATATTAAATATGTGTATATATAT [XGTACX_negctrl_site336]” it is 8.38 ± 0.5.
As for “TATTAATACGGACACACACACACACTAGATAAAATA [CACACA_site4295]”, the figure is 8.31 ± 0.26.
“AAAAAAAAAAAAAAAAGTACATATATATATATAATT [XGTACX_site4437]”: the “gcPBM binding intensity (ln)” value was 8.49 ± 0.4.
As for “TATTTAAATACTGACGCATGCATAAGGAGTAATAGT [TGCATGCA_site465]”, the figure is 8.4 ± 0.61; as for “AAACATTTATGAAGGTGTACAAAAATGAATTAAAAA [XGTACX_site7035]”, 7.92 ± 0.5; as for “TTTTTTTTTTTTTTTTGTACTTATAAAATAACATGT [XGTACX_site134]”, 8.13 ± 0.82.
As for “TAATACTTAGAGAAAAGTACGTATGAACTTATGTAA [XGTACX_site5504]”, the figure is 7.76 ± 0.27.
The figure for “AAGGCATGACTATCTGCACACATAAAAATAAGAAAT [CACACA_site8180]” is 8.62 ± 0.39; for “AATTTTTTTTTTTTGTGTCCTCATAATTCTTCATTC [XGTACX_site5042]” it is 7.93 ± 0.45.
Regarding “TAAAAAAAAATATAATGTACGTATAAATATATATTA [XGTACX_site5085]”, the “gcPBM binding intensity (ln)” value turned out to be 7.75 ± 0.39.
As for “TAAACATAATAATATACACACATATATTGATATATA [CACACA_site2144]”, the figure is 7.29 ± 0.56.
Regarding “TATATTTATTTAAAAACATGCATTTTTTTTTTCCGT [TGCATGCA_site44]”, the “gcPBM binding intensity (ln)” value came out at 7.92 ± 0.61.
The figure for “TTTTTTTTTTTTACATGTACTTATTTTAAATATAAA [XGTACX_site805]” is 8.04 ± 0.57; for “ATTTTTTTGGTAATTTGTACATAATATATACATAAT [XGTACX_site3742]” it is 8.13 ± 0.57.
On to “AAAATTAAAACCTACACACACATTTAAAAAAAAAAA [CACACA_site3068]”, for which the “gcPBM binding intensity (ln)” value is 7.83 ± 0.6.
As for “TATATTATAGGTTGTGTACACATATTATATAGTACT [CACACA_site4583]”, the figure is 8.14 ± 0.24; as for “ATATATTTATAGACTTGTACATATATATACGATATA [XGTACX_site8890]”, 7.6 ± 0.42; as for “TAACTATTATAAAAATGTACAAATGAAAATATTTTT [XGTACX_site1438]”, 7.76 ± 0.52.
The figure for “TACCAAAAAAAAAAAAATAAAAATAAAAAAAAAAAT [CACACA_negctrl_site1714]” is 7.45 ± 0.68; for “AAAATAAAAATAAAAGCACACATAAATATATATATA [CACACA_site8409]” it is 9.1 ± 0.085; for “TAAAAGTTTTTATACATACACACCTATAAATTAAGT [CACACA_site2446]” it is 7.87 ± 0.51.
The figure for “CTTTATTATAAGATTACACACATGTCTTATAATTTA [CACACA_site5715]” is 7.7 ± 0.58; for “TTCCTGTTAATTACAACACACAATTTTTATTTTATG [CACACA_site779]” it is 8.31 ± 0.24.
Turning to “TAATTAAATACATTAACACACACACTAATATATACA [CACACA_site8938]”, the “gcPBM binding intensity (ln)” value came out at 8.01 ± 0.35.
The figure for “ATATTTTTATATAATGAACACACATATTATATCATT [CACACA_site8446]” is 7.71 ± 0.54; for “TAAAAGGATACATATACACACATATATATATATATA [CACACA_site2791]” it is 9.45 ± 0.67; for “TTCTTCAACAAAAAAATAAAAATAAAATAATAAAAA [GTGCAC_negctrl_site619]” it is 7.68 ± 0.52.
Take “TTTAAAAAATTATATTCACACACATACACATATATA [CACACA_site8076]”: the “gcPBM binding intensity (ln)” value is 7.75 ± 0.3.
As for “ATAAATCGATAAAATATATGCTACATGAATAAATAA [XGTACX_negctrl_site604]”, the figure is 7.66 ± 0.55.
The figure for “AAAATATGTTAATATTGTACTTAAATAAAAAAAATA [XGTACX_site7152]” is 7.74 ± 0.46; for “ATTCTTAAAATAAAATGTACGAAAAAAAAAAAAAAA [XGTACX_site1657]” it is 8.12 ± 0.71.
As for “ATACACATAACATATATATATATATATATATATATC [CACACA_negctrl_site278]”, the figure is 8.48 ± 0.35.
With “TATATATATATAAACGCATGTAATTTATACACACAT [TGCATGCA_site946]”, the “gcPBM binding intensity (ln)” value was found to be 9.21 ± 0.36.
The figure for “ATCTTTCCTTTTGCATGTACATATGGAAATACTTTT [XGTACX_site6995]” is 8.31 ± 0.7.
For ATAATTAAGTTATGTGTGCACTGTTAAAAATAAATG, the “gcPBM binding intensity (ln)” value stood at 10.5 ± 0.25.
The figure for “TTTTATGATATTTACACACAAACGTGAGATAGCTCA [CACACA_site2311]” is 7.72 ± 0.73; for “AATATAATATCTATAATATAAAAAAAACAAAAAAAA [CACACA_negctrl_site875]” it is 7.5 ± 0.53.
